Assay results published in PubChem BioAssay AID1347073 (National Center for Advancing Translational Sciences (NCATS), 2019).
In all, about 45,000 compounds went through this assay and about 200 (0.44%) were called active. Not shown: some 7% with an inconclusive outcome. Calls come from the whole dose curve; as a rule, active = well fitted activation curve with a large enough effect; inconclusive = small, poorly fitted or top-dose-only effect; inactive = no such curve, though single readings can be large or run the other way. Some of the results follow. Square brackets hold non-standard residues; d marks the D form. Peptide text beside a SMILES is read from it. ξ: configuration not given here. ξM = CSCCC(N)C(=O)O

assay: qHTS of TDP-43 Inhibitors: NCGC Sytravon Library Screen; conditions: yeast TDP-43 toxicity rescue, BacTiter-Glo growth, 24 h; series mostly up to 46.1 µM; growth rescue (activation): at the top concentration; note: 0% is about no effect; nearly all actives have a fitted effect of over 55% in size
Description: The goal of this project is to identify new chemical probes capable of reversing the toxicity associated with TDP-43 which is associated with frontotemporal lobar degeneration and amyotrophic lateral sclerosis. These compounds will provide a complementary approach to deciphering the tangled mechanisms of toxicity and protection that we have uncovered through genome-wide genetic screens and are beginning to uncover in a large-scale proteomics analysis with mass spectroscopy. To this end, a miniaturized assay was developed to be screened against the Molecular Libraries Small Molecule Repository (MLSMR) to discover TDP-43 inhibitors. Please note that in the set-up this yeast-based assay compounds that inhibit as TDP-43, have a read-out as activators. NIH Chemical Genomics Center [NCGC] NIH Molecular Libraries Probe Centers Network [MLPCN] Assay Submitter (PI): Susan Lindquist, Whitehead Institute/MIT MLPCN Grant: R21 NS060957
Dispense 2.5 microL yeast galactose medium per 1536-well plate, pin compound, dispense 2.5 microL TDP-43 expressing yeast in galactose medium at OD600=0.02 (pregrown in raffinose medium to mid-log phase) per well, incubate for 24 hr at 30 deg C, and cell growth will be measured using 5 microL of Bactiter/Glo reagent to entire plate and read using Luminescence Protocol in ViewLux.

Row | SMILES | growth rescue (activation)
1 | COc1cccc(NC(=O)CN(C)CC(=O)Nc2ccc(C)c([N+](=O)[O-])c2)c1 | inactive: 22.1%
2 | COCCN(Cc1cc2cc(C)ccc2n2nnnc12)C(=S)Nc1ccc(C)cc1 | inactive: -3.63%
3 | COc1ccccc1/C=N/OCc1ccc(C#N)cc1 | inactive: 3.54%
4 | Cc1ccc(-c2cn3ccc(C)cc3n2)cc1 | inactive: 7.05%
5 | NS(=O)(=O)c1ccc(CCNC(=S)NC(=O)c2ccccc2Br)cc1 | inactive: -6.3%
6 | COc1ccc(N=N/C(=C\O)C(=O)c2cccs2)cc1 | inactive: 22.1%
7 | Cc1ccc(OCCCC(=O)Nc2ccc(S(=O)(=O)Nc3ccccn3)cc2)cc1 | inactive: 2.37%
8 | CC(=O)N1C(=O)N(C)C2C1N(C(C)=O)C(=O)N2C (stereo not drawn) | inactive: 10.6%
9 | Cc1cccc(NC(=O)Cn2c(=O)n(CCCCCC(=O)NCc3ccc4c(c3)OCO4)c(=O)c3sccc32)c1 | inactive: 5.83%
10 | CCOC(=O)C1(CCc2ccccc2)CCN(C(=O)[C@@H]2C[C@@H](C)NC(=S)N2)CC1 | inactive: -12.7%
11 | COc1ccc(C(=O)Nc2ccc(N3CCCCC3)cc2)cc1Br | inactive: 9.18%
12 | CC(C)CC(NC(=O)c1ccc(C#CC(C)(C)O)s1)C(=O)O (stereo not drawn) | inactive: -2.77%
13 | Cc1ccc(CCC(=O)Nc2ncc(Cc3cc(Cl)ccc3Cl)s2)o1 | inactive: 16.3%
14 | CCN(CC)C(=O)COc1ccc(/C(C)=N/NC(=O)c2ccccc2O)cc1 | inactive: 2.45%
15 | O=C(c1ccc2c(c1)N(Cc1ccccc1)C(=O)c1ccccc1S2(=O)=O)N1CCN(Cc2ccccc2)CC1 | inactive: 12.9%
16 | O=C(CSc1nnc(-c2ccccc2)n1-c1ccccc1)c1ccc[nH]1 | inactive: 4.92%
17 | CC(C)[C@H](NS(=O)(=O)c1ccc2c(c1)OCCO2)C(=O)OCC(=O)Nc1ccccc1Cl | inactive: 27.5%
18 | O=C(OCC(=O)c1ccc[nH]1)c1ccc(C(F)(F)F)cc1 | inactive: 9.59%
19 | O=C(CSCc1cccc(Br)c1)NC1CC1 | inactive: 32.3%
20 | CSCCC(NS(=O)(=O)c1ccc(Cl)cc1)C(=O)OCc1cccc(Cl)c1 (stereo not drawn) | inactive: -3.95%
21 | O=C(O)c1ccccc1CSC1=NCCS1 | inactive: 10.5%
22 | C=CCSc1nc(C)c(CCC(C)C)c(=O)[nH]1 | inactive: 29.3%
23 | CCCC(=O)Nc1c(-c2cccc(C)c2)c(=O)c2ccccc2n1C | inactive: -4.02%

Row | SMILES | growth rescue (activation)
24 | COc1ccc(NC(=O)CCC(=O)c2cccs2)cc1Cl | inactive: -11.8%
25 | Cc1cc(S(=O)(=O)N2CCOCC2)ccc1OCC(=O)NCCCn1ccnc1 | inactive: -2.82%
26 | Cc1ccc(C)c(N2CC(C(=O)OCC(=O)Nc3cc(C)on3)CC2=O)c1 (stereo not drawn) | inactive: -4.61%
27 | COc1ccc(NC(=O)Cc2coc3ccc4ccccc4c23)cc1S(=O)(=O)N1CCOCC1 | inactive: -6.77%
28 | Cc1ccc(/C=C(\C#N)C(=O)Nc2cccc(Br)c2)o1 | inactive: 26%
29 | Cc1cnc(C(=O)OCc2ccc(Br)cc2)cn1 | inactive: -1.72%
30 | Cc1nc2c(OCCN3C(=O)c4ccccc4C3=O)cccn2c1N(C)C(=O)CCC1CCCC1 | inactive: 7.06%
31 | CN(C)c1ccc(C(=S)N2CCNCC2)cc1 | inactive: 7.15%
32 | COC(=O)CNC(=O)C(CCSC)NC(C)=O (stereo not drawn) (Ac-[ξM]-Gly-OMe) | inactive: 3.06%
33 | CCN(CC)CCNCc1cc(Br)ccc1OCC(=O)NCc1ccccc1 | inactive: 2.21%
34 | Cc1ccc(NC(=O)CCC(=O)N/N=C/c2cc([N+](=O)[O-])ccc2O)cc1 | inactive: 5.45%
35 | COCCCn1c(-c2ccccc2)nc2ccccc2c1=O | inactive: -4.61%
36 | CCC(CC)NC(=O)c1nn(Cc2ccccc2)c(=O)c2ccccc12 | inactive: 20.6%
37 | Nc1nn(-c2ccccc2)nc1C(=O)OCc1ccccc1 | inactive: -7.75%
38 | N#C/C(=C/C1=C(N2CCOCC2)C(=C/c2ccc(Cl)cc2Cl)/CC1)C(=O)Nc1ccccc1F | inactive: 3.59%
39 | Cc1nc2ccc(S(=O)(=O)NCC(=O)Nc3ccc(F)cc3F)cc2s1 | inactive: 15.2%
40 | CCOc1ccc(C(=O)CCC(=O)NC(C)C(=O)OC)cc1 (stereo not drawn) | inactive: 8.35%
41 | Cc1c(C(=O)NCCc2ccccc2)oc2ccccc12 | inactive: 23.4%
42 | CCOc1cccc(N(C(=O)c2ccco2)C(C(=O)NC2CCCC2)c2cccnc2)c1 (stereo not drawn) | inactive: 16.7%
43 | COc1cc(C2C(N3C(=O)c4ccccc4C3=O)C(=O)N2c2ccc(C)c(C)c2)cc(OC)c1OC (stereo not drawn) | inactive: -4.13%
44 | O=C(CSc1ncccn1)Nc1ccc(Cl)c(S(=O)(=O)N2CCOCC2)c1 | inactive: -3.09%
45 | CC(=O)Nc1cc(-c2nn(C)c(=O)c3ccccc23)ccc1N1CCOCC1 | inactive: 9.61%
46 | N=c1c2c(ncn1CCN1CCOCC1)Oc1cc(O)ccc1C2c1ccccc1 (stereo not drawn) | inactive: 8.87%

Row | SMILES | growth rescue (activation)
47 | CCOC(=O)c1c(N=CN(C)C)c2cc([N+](=O)[O-])cnc2n1C | inactive: -65.4%
48 | CC(=O)N(c1nnc(-c2cccc(C)c2)s1)C1CCCC1 | inactive: 17.1%
49 | Cc1c(C(=O)N(C)Cc2ccccc2)oc2c(Cl)cccc12 | inactive: 9.77%
50 | CCOC(=O)N1CCN(Cc2ccc(O)c3ncccc23)CC1 | inactive: -28.4%
51 | COc1ccccc1C(=O)NNC(=S)NC(=O)c1ccco1 | inactive: -72%
52 | O=C(CCC(=O)Nc1ccccc1)NNC(=O)c1ccccc1Cl | inactive: 6.9%
53 | CCCCN(C(=O)c1ccc(-n2nc(C)cc2C)cc1)c1c(N)n(CCC)c(=O)[nH]c1=O | inactive: 17.6%
54 | COC(=O)Cc1cc(=O)n2[nH]c(C)c(-c3ccccc3)c2n1 | inactive: 16.9%
55 | COc1ccc(NC(=O)c2cccnc2NCCc2ccccc2)cc1 | inactive: 6.96%
56 | CN(c1ccccc1C(=O)O)S(=O)(=O)c1ccc2[nH]c(=O)oc2c1 | inactive: 7.98%
57 | C/C(=N\NC(=O)C(=O)Nc1c(C)n(C)n(-c2ccccc2)c1=O)c1ccc(Cl)s1 | inactive: 11.1%
58 | Cc1oc2ccc(OCc3ccc(Br)cc3)cc2c1C(=O)O | inactive: 8.18%
59 | CC(C)[C@H](NC(=O)Nc1cccc(C(F)(F)F)c1)C(=O)O | inactive: -14.2%
60 | O=C(O)c1ccc(Cl)c(S(=O)(=O)NC(Cc2ccccc2)C(=O)O)c1 (stereo not drawn) | inactive: -2.89%
61 | Cc1ccc(/C=N/NC(=O)c2cccnc2)o1 | inactive: 7.38%
62 | CC(=O)c1cccc(NC(=O)CCCN(C)S(=O)(=O)c2ccc(F)cc2)c1 | inactive: 0.19%
63 | O=C(CN1CCCCCC1)N/N=C/c1ccc(Cl)c(Cl)c1 | inactive: -33.2%
64 | CCOc1ccccc1C(=O)N(Cc1sccc1C)C1CCS(=O)(=O)C1 (stereo not drawn) | inactive: 9.13%
65 | O=C1C(=O)N(CC2CCCO2)C(c2ccccc2[N+](=O)[O-])/C1=C(/O)c1ccccc1 (stereo not drawn) | inactive: 5.14%
66 | O=C(Nn1cnnc1)c1ccccc1CCc1ccccc1 | inactive: 2.88%
67 | Cc1ccc(C(=O)NC(=S)Nc2ccc(NC(=O)c3cccs3)cc2)cc1[N+](=O)[O-] | inactive: 17.5%
68 | O=C(N/N=C/c1ccc(Br)o1)c1cccnc1 | inactive: 8.29%
